Results taken from patent publication US20260102505A1, “ANTI-CD45-IGN ANTIBODY DRUG CONJUGATES AND USES THEREOF” (Vor Biopharma Inc., priority 2022, published 2026).
“Also recorded” adds a separate entry of the source. Like-named read-outs stand apart in the source and are kept apart here.

Assays:
[1] = system: human CD45, cyno CD45 and rhesus CD45; test: CD45 binding / species cross-reactivity of antibodies; design: species or system cynomolgus
[2] = system: human HSCs and immune cells; test: HSC and immune cell depletion in humanized mice; type: in vivo, humanized NSG mice; conditions: single dose 1 mg/kg
Protocol: Humanized mice were treated with a single dose of an anti-CD45-ADC at a dose of 1 mg/kg. Peripheral blood samples were assessed at days 7 and 14 post-treatment and bone marrow was assessed at day 14 post-treatment (FIG. 3A).
(§1) The anti-malignancy activity was assessed in a patient-derived xenograft (PDX) model of relapsed/refractory acute myeloid leukemia (AML).

[3] = system: relapsed/refractory acute myeloid leukemia (AML) patient-derived xenograft; test: PDX model of relapsed/refractory AML, survival; type: in vivo, mice; conditions: R/R AML PDX
Protocol: Anti-malignancy activity of an anti-CD45-ADC was assessed using a patient-derived xenograft (PDX) model of relapsed/refractory acute myeloid leukemia (AML). A single dose of anti-CD45-ADC (Ab5-DGN549) was administered to a group of mice when tumor levels reached ˜10% in peripheral blood, around day 24. Control groups received either PBS, isotype-ADC, CD45 mAb, or ARA-C at 30 mg/kg QDx5. Long-term, disease-free survival was monitored.
as §1

[4] = system: recurrent angioimmunoblastic T-cell lymphoma patient-derived xenograft; test: PDX model of recurrent angioimmunoblastic T-cell lymphoma, survival; type: in vivo, mice; conditions: single dose 3 mg/kg at ~10% tumor in peripheral blood, around day 27
Protocol: Anti-CD45-ADC was further tested in a PDX model of recurrent angioimmunoblastic T-cell lymphoma. A single dose of anti-CD45-ADC (Ab5-DGN549) was administered to a group of mice when tumor levels reached ˜10% in peripheral blood, around day 27. Control groups received either PBS, isotype-ADC, CD45 mAb, ARA-C at 30 mg/kg QDx5, or Dexamethasone at 5 mg/kg Q3Dx10. Long-term disease survival was monitored.

HSCs and immune cells [5] = test: HSC and immune cell depletion in cynomolgus monkeys; type: in vivo
Protocol: (§2) Cynomolgus monkeys were treated with a single dose of anti-CD45-ADC (Ab5-DGN549) at various doses ranging from 0.05 to 0.6 mg/kg. Control groups received either PBS or isotype-ADC. Samples were collected at days 4, 7, 14, and 28 for flow cytometry analysis (FIG. 6A).
An additional experiment using Cynomolgus monkeys was performed, with an identical setup as described above (FIG. 8A). The anti-CD45-ADC was administered as a single dose at concentrations ranging from 0.05 to 0.6 mg/kg. Busulfan (administered at 6 mg/kg, QDx4) was utilized as a control.

[6] = cynomolgus
Protocol: as §2

HSCs and immune cells [7] = test: HSC depletion and immune cell function in rhesus macaques; type: in vivo
Excerpt: Control groups received PBS.

[8] = rhesus; single IV infusion 0.1, 0.3 and 0.6 mg/kg, any dose
Protocol: Rhesus macaques were treated with a single dose of anti-CD45-ADC at 0.1, 0.3, or 0.6 mg/kg. Control groups received PBS. Samples were collected at days 4, 7, 21, and 28 for flow cytometry analysis (FIG. 9A). […] Clinical pathology was further assessed in rhesus macaques treated with a single IV infusion of anti-CD45-ADC at 0.1, 0.3, and 0.6 mg/kg.

HSCs and immune function = test: Minimum efficacious dose for HSC + immune cell depletion in NHP; type: in vivo
[9] = system: erythroid-specific BCL11A enhancer-edited CD34+ cells; test: Conditioning and engraftment of BCL11A enhancer-edited CD34+ cells in rhesus macaques; type: in vivo
Protocol: Rhesus macaques were treated with a single dose of anti-CD45-ADC (Ab5-DGN549) at either 0.2 or 0.3 mg/kg followed by engraftment of erythroid-specific BCL11A enhancer-edited CD34+ cells.
For transplant studies, rhesus macaque CD34+ HSPCs were electroporated with 3×NLS SpCas9 protein and two RNAs targeting the +55 and +58 BCL11A erythroid enhancers.
A similar experiment was performed in Rhesus macaques. Rhesus macaques were treated with either 0.2 or 0.3 mg/kg of an anti-CD45-ADC as a single IV bolus. At day 10, the macaques underwent an HSC transplant with autologous gene-edited BCL11a enhancer −/− cells, and were monitored over time (FIG. 15A). A cohort of macaques were treated with Busulfan (5.5-6 mg/kg QDx4) as a control.
Two additional rhesus macaques were conditioned with 0.2 mg/kg anti-CD45 ADC and infused with autologous HSPCs transduced with a barcoded lentiviral vector.

GFP+ gene modified HSCs = test: Immunogenic GFP+ model, chimerism in blood after conditioning; type: in vivo, macaques; conditions: day 111; ~40% theoretical maximum chimerism
Protocol: Using an immunogenic GFP+ model, chimerism in blood was assessed following conditioning with anti-CD45-ADC. […] Engraftment was performed using gene modified HSCs that contained tracer DNA in order to study the lineage of the cells.

[10] = system: autologous HSPCs transduced with a barcoded lentiviral vector; test: Clonality after infusion of barcoded lentiviral vector transduced autologous HSPCs; type: in vivo, rhesus macaques; conditions: rhesus; 0.2 mg/kg; four to eight months after infusion
Protocol: At 0.2 mg/kg anti-CD45 ADC (n=1), editing reached 62% of target alleles among short-lived granulocytes, reflecting the HSC compartment, with a follow up of 72 weeks to date. […] Editing in other lineages including monocytes, NK cells, B cells, erythroid precursors and CD34+ HPSCs ranged from 79-93% for the animals given 0.3 mg/kg anti-CD45 ADC and 34-63% for the animal given 0.2 mg/kg anti-CD45 ADC. At 16-69 week post-transplantation, T cell editing was 14-21% following anti-CD45 ADC conditioning (8-31% for busulfan treated animals at 25-34 weeks). Two additional rhesus macaques were conditioned with 0.2 mg/kg anti-CD45 ADC and infused with autologous HSPCs transduced with a barcoded lentiviral vector.

[11] = system: Human HSCs (CD34 + CD90+); conditions: read-out: Cytotoxicity (IC90), in vitro
REH Leukemia Cell Line = conditions: read-out: Cytotoxicity (IC90), in vitro
[12] = cynomolgus, single dose 0.05 to 0.6 mg/kg

B1: Ab5: human anti-CD45 antibody, VH SEQ ID NO:41, VL SEQ ID NO:45; heavy chain SEQ ID NO:49, light chain SEQ ID NO:50 (antibody)
heavy: EVQLVESGGGLVQPGGSLRLSCAASGFTFEAYSMNWVRQAPGKGLEWVSYISLSGATIHYADSVKGRFTISRDNAKNSLYLQMNSLRAEDTAVYYCARGGQYYYTSSDYGEVAFDIWGQGTMVTVSSASTKGPSVFPLAPSSKSTSGGTAALGCLVKDYFPEPVTVSWNSGALTSGVHTFPAVLQSSGLYSLSSVVTVPSSSLGTQTYICNVNHKPSNTKVDKKV[not shown - human IgG1 Fc with L234A L235A D265C H435A (EU numbers)]
light: DIVMTQSPLSLPVTPGEPASISCRSSQSLVSSGYNYLDWYLQKPGQSPQLLIYFGSSRASGVPDRFSGSGSGTDFTLKISRVEAEDVGVYYCMQRRRTPWSFGGGTKVEIKRTVAAPSVFIFPPSDEQLKSGTASVVCLLNNFYPREAKVQWKVDNALQSGNSQESVTEQDSKDSTYSLSSTLTLSKADYEKHKVYACEVTHQGLSSPVTKSFNRGEC
cross-reactivity with CD45 of species (in words) [1]: cross reacts with human CD45, cyno CD45 and rhesus CD45

B2: anti-CD45-ADC: anti-CD45 Ab5 conjugated to DGN-549 via cysteines at amino acid 265 in the Fc region, protease-cleavable linker (conjugate)
heavy: B1 heavy
light: B1 light
depletion of human HSCs and immune cells in bone marrow and peripheral blood ([2]; n=5/group): > 95%
depletion of immune cell types in bone marrow ([2]; bone marrow day 14): > 95%
depletion of human HSCs and peripheral cells ([2]; peripheral blood days 7 and 14, bone marrow day 14): > 95%
median survival ([3]; single dose 3 mg/kg at ~10% tumor in peripheral blood, around day 24): > 332 days
median survival (long-term disease-free survival) ([3]; single dose, n=5-8 mice/group): > 330 days
median survival [4]: 103 days
depletion of bone marrow HSCs (in words, FIG. 14A) (HSCs and immune cells [5]; cynomolgus macaques): robust depletion of bone marrow HSCs
ability of T cells to divide ex vivo (in words) (HSCs and immune cells [5]; cynomolgus, day 3): reduce the ability for T cells to divide ex vivo
reduction of HSCs compared to Busulfan (in words) (HSCs and immune cells [5]; cynomolgus, doses >0.1 mg/kg, Busulfan 6 mg/kg QDx4): comparable reduction of HSCs as compared to the myeloablative Busulfan
depletion of immune cell function in peripheral blood (HSCs and immune cells [5]; cynomolgus, doses >0.2 mg/kg): > 90%
peripheral T cells recovery (in words) (HSCs and immune cells [5]; cynomolgus, lowest dose 0.05 mg/kg): return to pre-dose levels
peripheral B cells after administration (in words) (HSCs and immune cells [5]; [12]): reduction of peripheral B cells
peripheral T cells after administration (in words) (HSCs and immune cells [5]; [12]): initially reduced
HSCs in bone marrow relative to baseline (in words) (HSCs and immune cells [5]; cynomolgus, single dose 0.05 to 0.6 mg/kg, all doses, days 6 or 7 post-dose): depleted HSCs in bone marrow
peripheral immune depletion (in words) (HSCs and immune cells [5]; cynomolgus, single dose >0.15 mg/kg, 7 days post administration, n=3-6 animals/dose group): broad peripheral immune depletion
t1/2 ([6]; 0.2 mg/kg): < 1.2 h
in vivo clearance (in words) ([6]; infusion or bolus, various doses): rapid in vivo clearance
depletion of immune cell function in peripheral blood (HSCs and immune cells [7]; doses >0.3 mg/kg): > 90%
depletion of HSCs (HSCs and immune cells [7]; single dose >0.3 mg/kg, 7 days post-administration): greater than 95%
changes in ALP [8]: no changes
changes in ALT [8]: no changes
changes in AST [8]: no changes
changes in TBIL [8]: no changes
AUC (HSCs and immune function; 0.15 mg/kg): 0.92 µg·h/mL
HSC depletion (HSCs and immune function; 0.15 mg/kg): 99%
reduction in functional T-cells (inability to divide ex vivo) (HSCs and immune function; 0.15 mg/kg): 97%
minimum efficacious dose (MED) (HSCs and immune function; dose giving >95% depletion of HSCs and immune function): 0.15 mg/kg
editing in other lineages (monocytes, NK cells, B cells, erythroid precursors, CD34+ HPSCs) ([9]; 0.2 mg/kg): 34-63%
editing of target alleles among granulocytes ([9]; 0.2 mg/kg (n=1), follow up of 72 weeks): 62%
engraftment of the edited cells ([9]; 0.2 mg/kg single dose, week 50): ~60%
editing in other lineages (monocytes, NK cells, B cells, erythroid precursors, CD34+ HPSCs) ([9]; 0.3 mg/kg): 79-93%
engraftment level compared to myeloablative Busulfan (in words) ([9]; 0.3 mg/kg): comparable to that of the myeloablative Busulfan; also recorded: comparable results as to the myeloablative Busulfan
granulocyte editing ([9]; 0.3 mg/kg (n=2), stable through 24 and 32 weeks): 82-84%
F-cell levels ([9]; 0.3 mg/kg animals, week 10-13): 80-93%
γ-globin expression ([9]; 0.3 mg/kg animals, week 10-13): 67-82%
engraftment of the edited cells ([9]; 0.3 mg/kg single dose, by week 10): ~85%
induction of F-cells (in words) ([9]; 0.2 and 0.3 mg/kg): robust induction of levels of F-cells
engraftment of edited cells (in words) ([9]; 0.2 or 0.3 mg/kg single IV bolus, transplant at day 10): enabled engraftment of edited cells at all doses tested
fetal hemoglobin (HbF) induction (in words) ([9]; 0.2 or 0.3 mg/kg, HbF-positive cells / F-cells and γ-globin): robust hemoglobin F (HbF) induction; also recorded: robust fetal hemoglobin induction
T cell editing ([9]; 16-69 week post-transplantation): 14-21%
edited cell engraftment ([9]; single dose of 0.2 or 0.3 mg/kg): 60-80%
lymphoid chimerism (GFP+ gene modified HSCs): ~24%
myeloid chimerism (GFP+ gene modified HSCs): ~35%
clonality of engraftment (in words) [10]: highly polyclonal
IC90 [11]: 6.6 ± 5.9 pM
IC90 (Human PBMCs; read-out: Cytotoxicity (IC90), in vitro): 5.9 ± 1.2 pM
IC90 (Human PBMCs; read-out: Cytotoxicity (IC90), in vitro, listed as CD45-ADC): 5.8 ± 1.2 pM
IC90 (REH Leukemia Cell Line): 8.5 ± 4.3 pM
